The values below come from the supplement of paper PMC6609913.

Where a name gives a salt, the structure may show the parent alone. ± gives the standard deviation of the averaged measurements. Over roughly 1,300 compounds, “normalised cell viability” has its median near 1; the lowest 2% begin near 0.14. The list shows a part of the results.

For this assay, the system named is V-C8 (BRCA2-deficient hamster cells). Briefly: normalised cell viability (fraction of plate median); higher = more viable cells (less toxic). The conditions noted are these: 5 µM. The method in brief: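 Hamster V-C8 cells with and without restored BRCA2 were exposed in 96-well plates to library drugs at 5 μM for 3 days (screen 1) or 6 days (screen 2). Cell viability was scored by resazurin assay, then median-plate normalised, averaging triplicate wells.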

On to `C#C[C@]1(O)CC[C@H]2[C@@H]3CCC4=C(CCC(=O)C4)[C@H]3CC[C@@]21C` [Norethynodrel], for which the normalised cell viability was 0.994 ± 0.039 (treatment time: 3 days) and 1.05 ± 0.15 (treatment time: 6 days).

As for `CCc1oc2ccccc2c1C(=O)c1cc(Br)c(O)c(Br)c1` [Benzbromarone], the normalised cell viability by setting is: (treatment time: 3 days) 1.03 ± 0.026; (treatment time: 6 days) 1.051 ± 0.0087.

Turning to `CC/C(=C(\c1ccccc1)c1ccc(OCCN(C)C)cc1)c1ccccc1` [Tamoxifen citrate], the normalised cell viability reads like this: (treatment time: 3 days) 0.837 ± 0.019; (treatment time: 6 days) 0.767 ± 0.035.

Consider `CN[C@@H]1[C@H](O[C@H]2[C@H](O[C@H]3[C@H](O)[C@@H](O)[C@H](NC(=N)N)[C@@H](O)[C@@H]3NC(=N)N)O[C@@H](C)[C@]2(O)CO)O[C@@H](CO)[C@H](O)[C@H]1O` [Dihydrostreptomycin sulfate], for which the normalised cell viability is, setting by setting: (treatment time: 3 days) 0.9449 ± 0.0023; (treatment time: 6 days) 0.959 ± 0.056.

Molecule `NCc1ccc(S(N)(=O)=O)cc1` [Mafenide hydrochloride] yielded a normalised cell viability (treatment time: 3 days) of 1.03 ± 0.04 and a normalised cell viability (treatment time: 6 days) of 0.989 ± 0.11.

On to `CCN1CCC[C@H]1CNC(=O)c1c(O)c(Cl)cc(Cl)c1OC` [Raclopride], for which the normalised cell viability was 0.945 ± 0.029 (treatment time: 3 days) and 0.975 ± 0.16 (treatment time: 6 days).

Consider `CCCCC[C@H](O)/C=C/[C@H]1[C@H](O)CC(=O)[C@@H]1CCCCCCC(=O)O` [Alprostadil], for which the normalised cell viability amounted to 0.979 ± 0.024 (treatment time: 3 days) and 0.952 ± 0.078 (treatment time: 6 days).

With `CC(C(=O)O)c1ccc(C(=O)c2cccs2)cc1` (stereo unspecified) [Suprofen], the normalised cell viability came out at 1 ± 0.022 (treatment time: 3 days) and 1.06 ± 0.026 (treatment time: 6 days).

For the molecule `COc1cc2ncnc(Nc3ccc(F)c(Cl)c3)c2cc1OCCCN1CCOCC1` [Gefitinib], the normalised cell viability came out at 0.645 ± 0.035 (treatment time: 3 days) and 0.685 ± 0.01 (treatment time: 6 days).

`CCOc1ccc(NC(C)=O)cc1` [Phenacetin]: the normalised cell viability by setting is: (treatment time: 3 days) 1.02 ± 0.017; (treatment time: 6 days) 1 ± 0.098.

With `CN1CCC[C@@H]1CCO[C@](C)(c1ccccc1)c1ccc(Cl)cc1` [Clemastine fumarate], the normalised cell viability (treatment time: 3 days) came to 0.865 ± 0.022 and the normalised cell viability (treatment time: 6 days) stood at 0.903 ± 0.042.

For `Nc1nc2[nH]cc(CCc3ccc(C(=O)N[C@@H](CCC(=O)O)C(=O)O)cc3)c2c(=O)[nH]1` [Pemetrexed disodium], the normalised cell viability by setting is: (treatment time: 3 days) 0.427 ± 0.012; (treatment time: 6 days) 0.525 ± 0.048.

The molecule `COc1ccc(C(=O)c2ccccc2O)c(O)c1` [Dioxybenzone] gave a normalised cell viability (treatment time: 3 days) of 1.07 ± 0.078 and a normalised cell viability (treatment time: 6 days) of 1.06 ± 0.047.

On to `CC(C)(C)NC[C@H](O)COc1ccccc1C1CCCC1` [Penbutolol sulfate], for which the normalised cell viability by setting is: (treatment time: 3 days) 0.717 ± 0.077; (treatment time: 6 days) 0.833 ± 0.068.

Turning to `COc1ccc(CN2CCN(C(c3ccc(F)cc3)c3ccc(F)cc3)CC2)c(OC)c1OC` [Lomerizine hydrochloride], the normalised cell viability turned out to be 0.881 ± 0.042 (treatment time: 3 days) and 0.799 ± 0.035 (treatment time: 6 days).

As to `Cc1cnc(C(=O)O)c[n+]1[O-]` [Acipimox], the normalised cell viability is, setting by setting: (treatment time: 3 days) 1.11 ± 0.059; (treatment time: 6 days) 1.05 ± 0.022.

`O=C(O)[C@H]1/C(=C/CO)O[C@@H]2CC(=O)N21` [Potassium clavulanate] returned a normalised cell viability (treatment time: 3 days) of 1 ± 0.03 and a normalised cell viability (treatment time: 6 days) of 0.984 ± 0.039.

`O=C(OCCOCCO)c1ccccc1Nc1cccc(C(F)(F)F)c1` [Etofenamate]: the normalised cell viability turned out to be 1.06 ± 0.028 (treatment time: 3 days) and 1.03 ± 0.042 (treatment time: 6 days).

As for `OCCN1C[C@H](O)[C@@H](O)[C@H](O)[C@H]1CO` [Miglitol], the normalised cell viability runs as follows: (treatment time: 3 days) 1.07 ± 0.04; (treatment time: 6 days) 1 ± 0.11.

For `Cn1cnc([N+](=O)[O-])c1Sc1ncnc2[nH]cnc12` [Azathioprine], the normalised cell viability worked out at 0.822 ± 0.076 (treatment time: 3 days) and 0.733 ± 0.051 (treatment time: 6 days).

`CC(C)C(=O)Nc1ccc([N+](=O)[O-])c(C(F)(F)F)c1` [Flutamide]: the normalised cell viability reads like this: (treatment time: 3 days) 1 ± 0.078; (treatment time: 6 days) 0.983 ± 0.031.

As for `CC1COc2c(N3CCN(C)CC3)c(F)cc3c(=O)c(C(=O)O)cn1c23` (stereo unspecified) [Ofloxacin], the normalised cell viability reads like this: (treatment time: 3 days) 1 ± 0.013; (treatment time: 6 days) 0.867 ± 0.17.

The molecule `O=C(O)CCCC[C@@H]1SC[C@@H]2NC(=O)N[C@@H]21` [Biotin] had a normalised cell viability (treatment time: 3 days) of 1.12 ± 0.043 and a normalised cell viability (treatment time: 6 days) of 0.973 ± 0.023.

In turn, `C[C@@]1(O)CCOC(=O)C1` [Mevalonic-D, L acid lactone] gave a normalised cell viability (treatment time: 3 days) of 1.12 ± 0.05 and a normalised cell viability (treatment time: 6 days) of 1.05 ± 0.18.

For the molecule `COCC(=O)Nc1c(I)c(C(=O)NCC(O)CO)c(I)c(C(=O)N(C)CC(O)CO)c1I` (stereo unspecified) [Iopromide], the normalised cell viability by setting is: (treatment time: 3 days) 0.937 ± 0.075; (treatment time: 6 days) 1.07 ± 0.049.

With `COC(=O)C1=C(C)NC(C)=C(C(=O)OC(C)C)C1c1cccc2nonc12` (stereo unspecified) [Isradipine], the normalised cell viability is, setting by setting: (treatment time: 3 days) 0.986 ± 0.013; (treatment time: 6 days) 1.04 ± 0.035.

For `C[C@H](CCC(=O)O)[C@H]1CC[C@H]2[C@@H]3CC[C@@H]4C[C@H](O)CC[C@]4(C)[C@H]3CC[C@]12C` [Lithocholic acid], the normalised cell viability runs as follows: (treatment time: 3 days) 0.892 ± 0.068; (treatment time: 6 days) 0.977 ± 0.083.

For the molecule `CC(=O)SCC(Cc1ccccc1)C(=O)NCC(=O)OCc1ccccc1` (stereo unspecified) [Racecadotril], the normalised cell viability reads like this: (treatment time: 3 days) 1.04 ± 0.018; (treatment time: 6 days) 1.07 ± 0.098.

With `Clc1ccc(Nc2nnc(Cc3ccncc3)c3ccccc23)cc1` [Vatalanib], the normalised cell viability runs as follows: (treatment time: 3 days) 0.737 ± 0.012; (treatment time: 6 days) 0.823 ± 0.036.

`CN1CCC(OC(c2ccccc2)c2ccccc2)CC1` [Diphenylpyraline hydrochloride] showed a normalised cell viability (treatment time: 3 days) of 1.02 ± 0.011 and a normalised cell viability (treatment time: 6 days) of 1.04 ± 0.034.

In the case of `O=C(Oc1cccc2cccnc12)c1ccccc1` [Benzoxiquine], the normalised cell viability was 0.9 ± 0.062 (treatment time: 3 days) and 0.654 ± 0.046 (treatment time: 6 days).

For the molecule `CN(C)CCCN1c2ccccc2CCc2ccccc21` [Imipramine hydrochloride], the normalised cell viability runs as follows: (treatment time: 3 days) 0.956 ± 0.016; (treatment time: 6 days) 0.968 ± 0.017.

Regarding `NC(CO)C(=O)NNCc1ccc(O)c(O)c1O` (stereo unspecified) [Benserazide hydrochloride], the normalised cell viability came to 1.01 ± 0.029 (treatment time: 3 days) and 0.978 ± 0.07 (treatment time: 6 days).
